Several values for one entry are separate records, joined by “and”; a condition that tells them apart may be missing. Identical values can stand only once. Out of some 270,000 compounds screened, about 620 (0.23%) were called active. Inconclusive means that the source gave no clear call. Such entries were picked first, then a sample of the others. Calls come from the whole dose curve; as a rule, active = well fitted inhibition curve with a large enough effect in the polarisation, with a control signal flat (not every such curve was filed as active); inconclusive = small, poorly fitted or top-dose-only effect, or effect the other way, or a change in a side signal; inactive = no such curve, though single readings can be large or run the other way; the % refers to the polarisation. A potency beside an inconclusive call is a rough fit, not a confirmed value. A note “side channel” means that the fit belongs to a control or component signal, not to the main read-out.
What follows are compounds tested against Menin (Homo sapiens) (UniProt O00255) (assay: qHTS Assay for Inhibitors Targeting the Menin-MLL Interaction in MLL Related Leukemias: Competition With Texas Red Labeled MLL-derived Mutant Peptide). Details: fluorescence polarization; series mostly up to 61.6 µM.
Potency is the fitted concentration of half-maximal effect; tags give direction and shape of the fitted curve or compound fluorescence and quenching.

UniProt O00255, sequence (O00255 whole entry, looked up): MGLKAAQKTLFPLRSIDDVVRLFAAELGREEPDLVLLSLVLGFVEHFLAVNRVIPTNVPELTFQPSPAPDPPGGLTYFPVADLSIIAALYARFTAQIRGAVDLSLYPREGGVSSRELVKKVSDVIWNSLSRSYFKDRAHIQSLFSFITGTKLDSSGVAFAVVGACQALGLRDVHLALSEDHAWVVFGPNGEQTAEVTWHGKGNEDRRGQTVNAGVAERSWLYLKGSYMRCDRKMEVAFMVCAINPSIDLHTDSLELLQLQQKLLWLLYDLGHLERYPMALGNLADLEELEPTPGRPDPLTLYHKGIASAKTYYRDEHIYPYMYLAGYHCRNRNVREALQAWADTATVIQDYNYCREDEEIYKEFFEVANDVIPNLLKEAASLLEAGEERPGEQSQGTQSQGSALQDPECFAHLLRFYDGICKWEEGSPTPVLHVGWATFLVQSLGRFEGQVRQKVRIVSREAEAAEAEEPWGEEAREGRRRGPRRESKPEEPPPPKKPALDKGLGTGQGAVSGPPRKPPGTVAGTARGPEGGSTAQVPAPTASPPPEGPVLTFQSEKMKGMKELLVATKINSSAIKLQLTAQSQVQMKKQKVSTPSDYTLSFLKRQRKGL

SMILES | Potency
Nc1ccccc1C(=O)OCCOc1ccccc1 | inconclusive: 39.8 µM [quencher, side channel, single point]
O=P(O)(O)CCCl | inactive
O=C(O)CC1OCC=C2CN3CCC45c6ccccc6NC4C1C2CC35 (stereo not drawn) | inactive
c1ccc(CCCN2CCN(CCOC(c3ccccc3)c3ccccc3)CC2)cc1 | inconclusive: 12.6 µM [fluorescent, side channel, partial curve]
O=C(OC1CCN(CCCl)CC1)C(c1ccccc1)c1ccccc1 | inconclusive: 17.8 µM [fluorescent, side channel, partial curve]
O=C1NC(=O)N(Cc2ccccc2)C(=O)/C1=C\c1ccco1 | inconclusive: 39.8 µM [fluorescent, side channel, single point]
COc1ccc(NC(=O)CN(C)S(=O)(=O)c2ccc3[nH]c(=O)oc3c2)cc1 | inconclusive: 25.1 µM [quencher, side channel, partial curve]
COc1cccc(C(=O)C2CCCN(Cc3cccc(C)n3)C2)c1 (stereo not drawn) | inconclusive: 39.8 µM [inhibitor, single point]
O=C(CF)NC(NC(=S)Nc1cccc([N+](=O)[O-])c1)C(Cl)(Cl)Cl (stereo not drawn) | inconclusive: 20 µM [quencher, side channel, partial curve]
CCOC(=O)c1ccc2c(c1)N(CC)C(=O)c1ccccc1S2 | inconclusive: 28.2 µM [inhibitor, partial curve]
CCC(CO)(C(=O)OC1C[N+]2(C)CCC1CC2)c1ccccc1 (stereo not drawn) | inactive
Cc1cccc(N2CCN(C(=O)C34CC5CC(CC(C5)C3)C4)CC2)c1C | inconclusive: 3.16 µM [inhibitor, partial curve]
O=C(OC1Cc2c(O)cc(O)cc2OC1c1cc(O)c(O)c(O)c1)c1cc(O)c(O)c(O)c1 (stereo not drawn) | inconclusive: 25.1 µM [quencher, side channel, single point]
Cc1ccc(CC2C(=O)N(C)C(=O)N(C)C2=O)s1 | inconclusive: 20 µM [inhibitor, partial curve, poor fit]
Cc1nc2cc(-c3ccccc3)nn2c(C)c1CCC(=O)N1CCC2(CC1)OCCO2 | inconclusive: 39.8 µM [inhibitor, single point]
O=c1c(O)c(-c2ccc(O)c(O)c2)oc2cc(O)cc(O)c12 | inconclusive: 14.1 µM [quencher, side channel, partial curve] [middle of 6 runs]
C=C(CC1(C(C)NP(=O)(c2ccccc2)c2ccccc2)CC1)c1ccccc1 (stereo not drawn) | inconclusive: 12.6 µM [fluorescent, side channel, partial curve]
CCCCCn1c(N)c(C(=O)NCCN2CCOCC2)c2nc3ccccc3nc21 | inactive
Cc1ccc(C)c(OCC(=O)N2CCN(Cc3ccc4c(c3)OCO4)CC2)c1 | inconclusive: 25.1 µM [quencher, side channel, single point]
COc1ccccc1Oc1c(C)oc2cc(OC(=O)N(C)C)ccc2c1=O | inconclusive: 12.6 µM [inhibitor, partial curve]

SMILES | Potency
CN1C(=O)C(=Cc2ccccc2OCCOc2ccc([N+](=O)[O-])cc2)C(=O)N(C)C1=O | inconclusive: 12.6 µM [quencher, side channel, partial curve]
CCOC(=O)C1CCCN(c2ccc([N+](=O)[O-])c3nonc23)C1 (stereo not drawn) | inconclusive: 22.4 µM [fluorescent, side channel, partial curve]
COc1ccc(N(CC(=O)Nc2cccc(SC)c2)S(C)(=O)=O)cc1Cl | inconclusive: 11.2 µM [quencher, side channel, partial curve]
CCn1nc(-c2cccs2)nc2c(=O)n(C)c(=O)nc1-2 | inconclusive: 44.7 µM [quencher, side channel, partial curve]
CCOC(=O)C1(CCOc2ccccc2)CCN(Cc2ccccc2OC)CC1 | inconclusive: 14.1 µM [inhibitor, partial curve]
CCCCn1c(NS(=O)(=O)c2ccccc2)c(C(=O)OCC)c2nc3ccccc3nc21 | inactive
Oc1ccc2c3c1O[C@H]1c4[nH]c5ccccc5c4C[C@]4(O)[C@H](C2)N(CC2CC2)CC[C@@]314 | inactive
CCCCCCOc1ccc(CN2CCN(CCO)CC2)cc1 | inconclusive: 10 µM [inhibitor, partial curve]
CCn1c(O)c(C=NCc2ccccc2)c(=O)[nH]c1=S | inconclusive: 39.8 µM [fluorescent, side channel, single point]
O=C1CC(=O)N(Cc2ccccc2)C(=S)N1 | inconclusive: 31.6 µM [quencher, side channel, single point]
CCC1=Nc2cc(C(=O)N3CCC4(CC3)OCCO4)ccc2Sc2ccc(C)cc21 | inconclusive: 3.98 µM [inhibitor, full curve, poor fit]
N#C/C(=C\c1ccc(O)c(O)c1)C(=O)NCCCNC(=O)/C(C#N)=C/c1ccc(O)c(O)c1 | inconclusive: 28.2 µM [quencher, side channel, partial curve]
O=C(O)Cn1cc(/C=C2\C(=O)NC(=O)N(Cc3ccco3)C2=O)c2ccccc21 | inconclusive: 8.91 µM [quencher, side channel, full curve]
O=C(Nc1ccc(F)cc1F)c1cccn(Cc2ccccc2)c1=O | inconclusive: 39.8 µM [quencher, side channel, single point]
CCCCCCCCCCCCCCCC[n+]1ccccc1 | inconclusive: 22.4 µM [inhibitor, partial curve]
CN(C)[C@@H]1C(=O)C(C(N)=O)=C(O)[C@]2(O)C(=O)C3=C(O)c4c(O)cccc4[C@@](C)(O)[C@H]3[C@H](O)[C@@H]12 | inactive
CN1C(=O)N(C)C(=O)C2(Cc3c(nc4ccccn4c3=O)N3CCC(Cc4ccccc4)CC32)C1=O (stereo not drawn) | inconclusive: 35.5 µM [fluorescent, side channel, single point]
COc1ccc(CN2C(=O)NC(=O)/C(=C/c3ccc([N+](=O)[O-])o3)C2=O)cc1 | inconclusive: 28.2 µM [fluorescent, side channel, single point]
Cc1ccc(S(=O)(=O)NP(=O)(Oc2ccccc2)Oc2ccccc2)cc1 | inconclusive: 22.4 µM [quencher, side channel, single point]
O=C1NC(=O)C(=Cc2ccc(OCCOc3ccc([N+](=O)[O-])cc3)cc2)C(=O)N1 | inconclusive: 17.8 µM [quencher, side channel, partial curve]

SMILES | Potency
Nc1ccc(Oc2cccc(Oc3ccc(N)cc3)c2)cc1 | inconclusive: 28.2 µM [quencher, side channel, partial curve]
CCN(CC)S(=O)(=O)c1ccc(N=Cc2c(O)n(-c3ccccc3)c(=O)[nH]c2=O)cc1 | inactive
C/C1=C/C(=O)O[C@@H]2C[C@@H](CC[C@H](C)/C=C\CC1)O[C@@](O)(C1CSC(=O)N1)C2 (stereo partly drawn) | inactive
CN1CC[C@@]2(C)c3cc(O)ccc3N(C)C2O1 (stereo partly drawn) | inconclusive: 4.47 µM [quencher, side channel, full curve, poor fit]
CC(CO)NC(=O)C1C=C2c3cccc4[nH]cc(c34)CC2N(C)C1 (stereo not drawn) | inactive
COc1cccc(OCCNC(=O)c2cc([N+](=O)[O-])cc([N+](=O)[O-])c2)c1 | inconclusive: 31.6 µM [quencher, side channel, single point]
Clc1ccc(C(c2ccc(Cl)cc2)n2cc[n+](CC(OCc3ccc(Cl)cc3Cl)c3ccc(Cl)cc3Cl)c2)cc1 (stereo not drawn) | inconclusive: 4.47 µM [fluorescent, side channel, full curve] and inconclusive: 12.6 µM [inhibitor, partial curve]
Cc1ccc(CSCCNS(=O)(=O)c2ccc([N+](=O)[O-])cc2)cc1 | inconclusive: 35.5 µM [quencher, side channel, single point]
CCOc1cc2c(cc1OCC)-n1cccc1C(c1ccc(OC)cc1)NC2 (stereo not drawn) | inconclusive: 2.51 µM [inhibitor, full curve]
CCN(CC)c1ccc(C=C2C(=O)N(C)C(=S)N(C)C2=O)o1 | inactive
COc1ccc(CCN)cc1O | inconclusive: 15.8 µM [inhibitor, partial curve]
N#CC(C#N)=C(C#N)c1ccc(Nc2ccccc2)cc1 | inconclusive: 28.2 µM [quencher, single point]
C[n+]1c(-c2ccccc2)cc(CCCCc2cc(-c3ccccc3)[n+](C)c(-c3ccccc3)c2)cc1-c1ccccc1 | inconclusive: 1.58 µM [fluorescent, side channel, full curve, poor fit]
O=c1[nH]c(=S)[nH]c(O)c1N=Nc1ccc(-c2ccccc2)cc1[N+](=O)[O-] | inconclusive: 22.4 µM [quencher, side channel, partial curve]
CCC(C)N1C(=O)/C(=C\c2ccc(N3CCCCCC3)cc2)C(=O)NC1=S (stereo not drawn) | inconclusive: 39.8 µM [inhibitor, single point]
Cc1cccc2c3c(ccc12)C1=C(C(=O)C3=O)[C@@H](C)CO1 | inconclusive: 17.8 µM [quencher, side channel, partial curve]
CN1C2CCC1CC(OC(=O)c1cc(Cl)cc(Cl)c1)C2 (stereo not drawn) | inactive
COCCOC(=O)c1c(N)n(Cc2ccccc2)c2nc3ccccc3nc12 | inactive

— PubChem BioAssay AID1768 (National Center for Advancing Translational Sciences (NCATS), 2009)
